Molecules are shown by their SMILES. Some structures have more than one record in an assay (separate samples or runs), and their calls can disagree.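 Compound tested at a single concentration for 48 hours in 96-well plates; a percent growth value below 10 was scored as active.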 The source holds more than one record for some entries. This list holds those alone. There may be further records. The screen tested this drug many times, at the concentration stated with the values; one value stands for one run. Marks such as (2×) stand for listed records that agree.

The assay relates to HL-60(TB) leukemia. Briefly: NCI-60 one-dose screen, 48 h (100 = growth as untreated, 0 = no growth, -100 = all killed). To be noted: 0.25 µM.

`COc1cccc2c1C(=O)c1c(O)c3c(c(O)c1C2=O)C[C@@](O)(C(=O)CO)C[C@@H]3OC1CC(N)C(O)C(C)O1` (stereo partly drawn): the growth entry runs as follows: (runs of 2006) “active: 7.91% and inactive: 10.4%”; (runs of 2007) “inactive: 14.4, 12.3, 21, 32.8, 12.2, 44, 43, 33.2, 46.6, 18.6, 25.8, 52.3, 50.6, 32.4, 58.7, 72.6, 15.2, 10.6, 27.7, 16.8, 32.6, 34.3, 52.1, 107, 85.4, 63.6, 51.8, 18.9, 41.2, 64.2, 25.2, 37.9% and active: 8.89, 0.364, 4.53, -0.393, 4.69, 6.81, 9.43, -4.04, 1.75, 5.56, -4.68%”; (runs of 2008) “inactive: 47.3 (2×), 63.9, 65.7, 31.9, 40.7, 23.2, 88.4, 40, 29.4, 11.1, 64.6, 43.5, 51.1, 51.8, 31.6, 42.3, 11.7 (2×), 49.6, 32.6, 44.8, 13.8 (2×), 14.1, 104, 10.9, 12.4, 24.2, 28.6, 19.3, 46.7, 38, 21.7, 27.9, 18.3, 35.2, 39.9, 55.8, 39.3, 15.9, 17.9, 20.3, 11, 14.3% and active: -13.7, 5.75, 6.54, 7.42, -26.3, 7.34, -7.71, -13.5, 4.89, -16.1, -1.97, 3.16, 2.23%”; (runs of 2009) “inactive: 78.4, 65, 24.2, 38.7, 17.6, 39.7, 78.7, 65.1, 38, 21.9, 19.3, 66.5, 68.8, 56.6, 15.6, 22.2 (2×), 28.5, 23, 36.1, 42.2, 45.6, 37 (2×), 27, 18.2, 38.6, 33.4 (2×), 23.3, 42.8, 32.4, 45.8, 57.9, 53.1, 31.9, 39.4, 48.7, 58.6, 61.6 (2×), 20.7, 58.2, 54.9, 65.2, 48.6, 64.4, 51.7, 37.8, 36.8, 29.1, 31.7, 49.2, 31.2, 38.9, 24.6, 57.4, 45.9, 46.2, 50, 44.9, 32.9, 44, 49.4% and active: -1.19%, 7%”; (runs of 2010) “inactive: 50, 46.8 (2×), 48.1, 42.3, 48.9, 49.8, 39.2 (2×), 40, 33.9, 38.5, 35.9, 33.7, 30.4 (2×), 41.4, 45.6, 28.7, 22.2, 27.3, 15.7, 34.9, 54.4, 41.9, 33.1, 29.5, 28.4, 38, 33.8, 38.6, 76.6, 26, 57.7, 39.5, 34.2, 40.6, 36.9, 29.4, 20.2, 41, 47.3, 41.8, 37.6, 35.1, 47.5, 46.2, 38.8, 25.2, 39.4%”; (runs of 2011) “inactive: 42, 23.6, 33.5, 23.9 (2×), 34.7 (2×), 36.4, 41.6, 23.8, 31.5, 54.7, 18.1, 34.6, 40.1, 50.4, 66.7, 73.4, 65.2, 52.2 (2×), 61.2 (2×), 33.2, 57.9, 59, 56.1, 63.4, 58.8, 72.7, 68.9, 25.8, 31.6, 27.3, 24.9, 30.9, 20.7, 35.7, 41.2, 42.1 (2×), 17, 31.8, 24, 26.4, 24.8, 39.6, 23.7, 35.2, 36.8, 38.8, 20.3, 43.2, 53.1, 50.8, 38.2, 38.5, 27.6%”. Also, the growth result (runs of 2012) is “inactive: 53.3, 36.8, 38.1 (2×), 29.9, 43.9, 41.1, 32.6, 34.7, 28.4, 31.5, 29.6, 47.2, 29.2, 44.7, 50.2, 45.2, 28.3, 25, 17.5, 18.9, 28.6, 25.9, 41.6, 44, 39.4, 32.7 (2×), 27.7, 24.5, 30.2, 18.4, 24.3, 25.8, 55.1, 35.6, 28.5, 38.2, 21.8, 34.1, 35.5, 46.4, 27.8, 43.8, 42.3 (2×), 50.9, 46.6, 51.3, 43, 40.9, 32.4, 54.7, 28.9, 30.4, 18.3, 13.6, 42.2, 33.2, 20.3, 23.8, 15.7, 33.5, 40.7, 25.4% and active: 2.59%”; the growth result (runs of 2013) was “inactive: 19.7, 19.6, 14.9, 44.4, 51.1 (2×), 40.1 (2×), 19.3, 20.5, 24.8, 29.8, 36.5 (2×), 11, 29.5, 21.6, 30.2, 27.5, 37.5, 30.8, 28.3 (3×), 51.3, 38.4, 42, 60.9, 38.1, 34.9, 46 (2×), 66.1, 49.3, 58.2, 46.3, 41.9, 54.1, 46.6, 47.2, 40.2, 38.7, 41.8, 58.9, 47.6, 29.2, 21.8, 50.9, 32.6, 18.6, 50.2, 45.2, 57.1, 32.2, 31, 39.1, 28.6, 59.8, 62.5, 30.9, 40, 43.8, 32.8, 66.4, 38.5, 64.3, 37.3, 77.4%”; the growth entry (runs of 2014) is “inactive: 27.8, 17.3, 30, 43.4 (2×), 44.2, 41.3, 44.8, 29.8 (3×), 45.1, 29.3, 51.4, 38.9, 29.7, 52, 29.6 (2×), 40.8, 24.5, 50, 33.7, 33.8 (3×), 41.1, 39.5, 36.5, 36.6, 45, 65.7, 63.1, 36.9 (2×), 32.3, 37.5, 35, 32, 28.7, 32.7, 31.1, 35.3, 34.5, 28.4, 34.9, 32.4, 39.1, 46.7, 39.2, 27.7, 28.5, 48.7, 43, 18, 23.6, 31.7, 27.9 (2×), 40.4 (2×), 54.3, 61, 48.4, 57.9, 35.2, 55, 49.9, 40.6, 42.3 (2×), 24.6, 58, 62.2, 50.1, 38.8%”; the growth result (runs of 2015) is “inactive: 37.3, 41.3, 26.4, 32.5, 32.9, 29.1, 30.5 (2×), 37.5 (2×), 36.9, 29.4, 35.5 (2×), 54.9, 43.6 (2×), 22.5, 25.2, 38.2, 45.2, 29.9 (2×), 47.4, 36.3, 50.5, 41.4, 52.8, 34.6, 32.4, 29.3, 35.1, 42.9, 28.9, 25.4, 41, 39.9, 46.2 (2×), 56, 31, 31.9 (2×), 39.3, 48.8, 42.3 (2×), 42.2, 42, 38.8, 42.8, 47, 71.5, 48.6, 29, 25.9, 29.8, 35, 49.6, 31.7, 31.5, 30, 38.3, 40.3, 44.2, 55.1, 75.1, 47.5, 32.6 (2×), 25, 27.3, 52.7, 66.2, 75.5, 78.9, 27.2, 31.4, 41.5%”; the growth result (runs of 2016) is “inactive: 38.8, 31.7 (3×), 33.4, 36.9, 37.7 (2×), 39.5, 30.6, 26, 31.6 (2×), 35.1, 23.6, 56, 49.4, 33.1, 37.5 (2×), 40.9, 39.1, 44.3, 40.8 (2×), 30.1, 38.7 (2×), 39.6 (2×), 40.1, 44.8, 27.9, 33.8, 42.6, 29.5 (2×), 42.8, 48.5, 52.8, 56.7, 40.2, 45.6 (2×), 32, 34.7, 39.7, 38.3, 29.2, 29.9, 28.7, 37.4, 35.2, 29.3, 24.2, 41.3, 36.2, 27.6, 46.8, 42.2, 49.7 (3×), 45.1, 47.4, 39.3, 42.9, 46.6, 58.9, 25.3, 18.8, 28.5, 25.5, 29.1, 30.3, 13.4, 12.3, 13.6, 37.6, 50.3, 41.5%”; the growth result (runs of 2017) is “inactive: 28.7 (2×), 29.8 (2×), 24.5, 28.9 (2×), 21.4, 25.6 (2×), 21.9 (2×), 22.3 (2×), 22.2, 20.2, 27.2, 29.4 (2×), 36, 33.5, 35.6, 42.7, 35.5 (2×), 32, 25.4, 34.6, 23.8 (2×), 29.2, 27.4, 32.4 (2×), 40.8, 50.2, 19.2, 24.1, 36.2, 35.7, 25.3, 25.9, 24.9, 17.5, 37, 17, 23.1, 28.8, 24.2, 30.4, 22.9, 29.3, 17.9, 23.7, 27, 33.4, 25.2, 20.7, 46.9, 43, 12.7, 12.8, 31.2, 18, 13.9%”. Also, for the setting “runs of 2018”, the growth entry was “inactive: 30.9 (3×), 35 (2×), 32.6 (2×), 34.6, 28.3 (2×), 31, 23.4, 29.3, 30.1, 29.1, 31.1, 33.5, 19.5 (2×), 17.1, 10.9, 13.4, 17.9, 28.4, 24.9, 25.2, 38.5, 32.8, 23.9, 24.2, 25.9, 29.4, 24.5, 30.6, 22.3, 32.9, 24.8, 44.8, 32.3, 23.1, 35.7, 26.8, 29.8, 17.6, 38.7, 40.4, 37.6, 42.9, 37, 44.6, 18.4% and active: 1.14%”.

Values taken from PubChem BioAssay (NCI).
